Experimental data reported in the RNAGym collection of RNA variant scans (doi:10.1101/gad.245936.114).
Variants at the background level are over-represented here.

B1: tRNA (parent)
chain: CUCUCGGUAGCCAAGUUGGUUUAAGGCGCAAGACUUUAAUUUAUCACUACGAAAUCUUGAGAUCGGGCGUUCGACUCGCCCCCGGGAGAUUUUUUCCUCGAGCAA

Variants of: B1
Assay: nonsense suppression (GFP-seq) (ratio to wild type); higher = more function; SUP4oc tRNA, yeast GFP reporter sort-seq
Method in brief: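 Sorted GFP/RFP bins of yeast were each Illumina-sequenced with a phred ≥30 cutoff; the cells held a genome-integrated ochre-suppressor tRNA variant from a library with ~3% random mutations, a galactose-driven GFP ochre reporter, and RFP. Culture was in raffinose/galactose medium containing 80 mg/L adenine. Nonsense suppression, termed GFPSEQ, is the median GFP/RFP of the bins weighted by each variant's estimated cell share per bin, relative to the unmutated parent tRNA, for variants reaching ≥100 reads and ≥30 cells.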

Nonsense suppression, ≤ 0.026:
G10A G85U
G10A U16G A87U
G10A U16G G61A
G10A U17A C56G G73U C81A C83G
G10A U17A G26C G69A C83A
G10A U17G G69C
G10A U20A G26A C34A G86C
G10A U21G G25C G67U G78A C82A G86A
G10A U22A C80A C83U G88C
G10A U22A G25U C56A G61U C82G
G10A U22C
G10A U58A A62G U70A
G10A U58G
G10A U63A C80U
G10A U63C A74G G86U
G10A U63G C77U G84C
G10A U71A G88U
G10A U71C
G10C A13C U35C C64G
G10C A13G A14G G86U
G10C A13G G15A U57C
G10C A13G U57A A74C
G10C A14C A33C C68A G78U
G10C A14U G66C
G10C A23C
G10C A23G U76C
G10C A24U A30G A33U U55A C80U
G10C A24U G65C
G10C A30C C81A G86A
G10C A30G A31C G65A
G10C A33G
G10C A33G C81A
G10C A62C U76G G88A
G10C A87C
G10C C11A G18C U57C G78U
G10C C11G C68U U71C
G10C C11U G25C U63C
G10C C11U G26U G66U
G10C C12A G26U G32C
G10C C12A U55G
G10C C27A
G10C C27U C34A
G10C C29U A31U U71G A87G
G10C C29U A60G A74C
G10C C34G C56G G59A U71C
G10C C34G C68U
G10C C34U C56U A74C C77G
G10C C34U G85U
G10C C56A
G10C C79U
G10C G15A U57C G69A
G10C G15C G32U U63A
G10C G15C G32U U63A A89C
G10C G15U
G10C G15U A33U
G10C G15U C27U G66U U70G U71G
G10C G18A
G10C G18C G67A
G10C G19A
G10C G19U C64G
G10C G25C G61C U71A
G10C G25C G67A
G10C G26A G65A A87U
G10C G26C C29A
G10C G26C U57G A62G
G10C G26U G86A G88A
G10C G28A
G10C G32A
G10C G32U A54U U55A C68G G69C G86U
G10C G59U G66A G85U
G10C G61A C82G
G10C G61C U63C G73A
G10C G66U G84C
G10C G67U G84U
G10C G73C A87G
G10C G86U
G10C U16A U22C U76G
G10C U16G A60C
G10C U17A G73U G85C
G10C U17C G78A A87C
G10C U17C U55C C72G G78U
G10C U20G C34A C72A C83U
G10C U20G U55A U57G C83G
G10C U21A
G10C U21G
G10C U22G
G10C U35A C79A
G10C U35A G66C G85U
G10C U35C U71G G78A
G10C U35G U58G G59A C68G A74C
G10C U57C G86U
G10C U71A
G10C U76C
G10U A13C C29U U76G
G10U A13C U21A C83U
G10U A13C U22A
G10U A13C U63G
G10U A13G G15U C34G A62C A89C
G10U A13U U21A
G10U A14C C56A
G10U A14C G15U G19U
G10U A14G A54G G73C C75A
G10U A23C C27A U55C U58G C68G G69C
G10U A23G C34G A62C G69C
G10U A24U
G10U A24U A60G G78A
G10U A24U C79G C81G
G10U A30C C56A U70G U76A
G10U A30C C77U
G10U A30G C77U
G10U A31C U57C
G10U A31C U58A
G10U A31G A33G
G10U A31U
G10U A33G A54C
G10U A54C
G10U A62G G73C C83A
G10U C11A A60C
G10U C11G G32A C79A G85A
G10U C11U A24C
G10U C11U C27G U55G A74G
G10U C11U G15A C68G U71C
G10U C27A G28U U57C A62U A87G
G10U C27A G65U G66A
G10U C27U
G10U C27U C29A A60C U76G
G10U C29G
G10U C29G A60U
G10U C29U A33C C64U G84U G86U
G10U C29U C79U
G10U C34A U58G U71G C77A
G10U C34G
G10U C34G G65C U76G
G10U C34G U55G
G10U C34G U63A C81U
G10U C34G U70A
G10U C64A
G10U C64G
G10U C68U
G10U C80U
G10U C81A
G10U C81U
G10U G15A C56G C72G C79G G85U
G10U G15A G26U A60U A74G G85A
G10U G15U
G10U G15U G65U C72A G73U
G10U G15U G67C
G10U G18C G88C
G10U G19A C68G
G10U G19C
G10U G19C G85C
G10U G19U
G10U G25C A31G U57A A87G
G10U G25C G59A G66C U76G
G10U G25U U76A
G10U G26A
G10U G26U
G10U G26U A33G U58A A62C G65A C72A
G10U G28C C56U
G10U G32A C34U G65A
G10U G32U
G10U G59U G69U
G10U G61A
G10U G61A A62U U76C C77G G85U
G10U G61A A62U U76C C77U G85U
G10U G61C G66A
G10U G65A
